In all, about 330,000 compounds went through this assay and about 560 (0.17%) were called active. Inconclusive means that the source gave no clear call. Such entries were picked first, then a sample of the others. Calls follow the shape of the dose curve; as a rule, active = well fitted inhibition curve with a large enough effect; inconclusive = small, poorly fitted or top-dose-only effect, or effect the other way; inactive = flat fitted curve, though single readings scatter. Potencies of inconclusive entries are left out as doubtful fits.
Biological target: ATP-dependent 6-phosphofructokinase (Trypanosoma brucei brucei) (UniProt O15648)
Assay: qHTS Assay to Find Inhibitors of T. brucei phosphofructokinase; also: nearly all actives have a fitted effect of over 60% in size;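 as to activity, negative = inhibition: 0% = uninhibited 1x PFK enzyme wells and -100% = no-enzyme wells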
Details: T. brucei PFK, ADP-Glo luminescence; activity, negative = inhibition: at 57.5 µM (top of the series)
In short: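 In TEA buffer at pH 8.0 with 5 mM MgCl2, enzyme (1.25 nM) converted F6P (0.5 mM) and ATP (0.1 mM) for 45 min at room temperature. ADP product was read by luciferase luminescence.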
Potency is read from the fitted curve at half-maximal effect; tags tell the direction and shape of the fitted curve.

UniProt O15648, sequence (O15648 whole entry, looked up): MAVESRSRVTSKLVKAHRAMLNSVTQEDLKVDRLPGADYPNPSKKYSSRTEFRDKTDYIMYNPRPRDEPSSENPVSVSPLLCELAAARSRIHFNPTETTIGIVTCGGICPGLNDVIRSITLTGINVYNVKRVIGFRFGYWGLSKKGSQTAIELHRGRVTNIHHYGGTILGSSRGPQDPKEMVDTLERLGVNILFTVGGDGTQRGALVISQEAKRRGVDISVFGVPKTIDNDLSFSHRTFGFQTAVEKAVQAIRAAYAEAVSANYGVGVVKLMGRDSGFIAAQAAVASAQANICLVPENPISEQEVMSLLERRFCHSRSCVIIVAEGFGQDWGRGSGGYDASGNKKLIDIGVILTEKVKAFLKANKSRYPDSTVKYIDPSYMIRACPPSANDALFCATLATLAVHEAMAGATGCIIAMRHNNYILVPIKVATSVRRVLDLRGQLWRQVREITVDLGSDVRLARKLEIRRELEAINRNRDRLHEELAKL

Compound	Potency	activity, negative = inhibition
COc1ccc(N=C2S/C(=C\c3ccc(N4CCOCC4)o3)C(=O)N2CCc2c[nH]c3ccccc23)cc1	inconclusive [falling, partial curve]	–
O=c1c2ccccc2sn1-c1ccccc1	active: 4.78 µM	–
O=[N+]([O-])c1cc(/C=N\Nc2nccs2)ccc1O	active: 9.53 µM	–
O=C1CCC(C(=O)Nc2cccc(S(=O)(=O)Nc3ccccc3F)c2)=NN1	inconclusive [falling, full curve]	–
CCOC(=O)c1cnc(SC)nc1Sc1ccc(Cl)cc1Cl	–	inactive: -2.53%
Cc1cc(C)cc(C(=O)NCC(=O)OCC(=O)N2c3ccccc3NC(=O)C2(C)C)c1	inconclusive [falling, single point]	–
COc1cc(/C=N/NC(=O)c2ccncc2)ccc1OCC(=O)Nc1cccc([N+](=O)[O-])c1	inconclusive [falling, single point]	–
O=C(O)c1cc(-c2ccc(N3CCOCC3)cc2)nn1-c1ccc(F)cc1	–	inactive: 7.54%
COC(=O)CC(=O)N1CCN(c2ccc(Cl)c(Cl)c2)CC1	inconclusive [falling, partial curve]	–
O=C(O)CCC(=O)N1CCc2cc(S(=O)(=O)N3CC=C(c4ccccc4)CC3)ccc21	inconclusive [falling, single point]	–
COc1cc(C)c(NC(=S)Nc2ccc(Cl)c(Cl)c2)cc1OC	inconclusive [falling, partial curve]	–
COc1ccc(CCNS(=O)(=O)c2ccc3oc(C(=O)O)c(C)c3c2)cc1OC	inconclusive [activator, single point]	–
CC(=O)C(C(C)=O)c1c(Cl)c(O)c(O)c2c(C(=O)c3ccccc3)coc12	inconclusive [falling, single point]	–
NNC(=O)c1cccc(COc2ccc3c(c2)CCC3)c1	–	inactive: -4.28%
O=C(Nc1ccc(NC(=O)c2ccccc2Br)cc1)c1ccccc1	–	inactive: -2.3%
CC(C)Oc1ccc(CNC(=O)Cn2ccc3cc(S(=O)(=O)N4CCCC4)ccc32)cc1	–	inactive: -0.236%
CCCN(C(=O)c1cccc(-n2cccc2)c1)c1c(N)n(Cc2ccccc2)c(=O)[nH]c1=O	inconclusive [falling, full curve]	–
Cc1cc(C)c(S(=O)(=O)/N=C2/C=C(Sc3ncn[nH]3)C(=O)c3ccccc32)cc1C	inconclusive [falling, partial curve]	–
Cn1c(N=Nc2ccccc2)nc2ccccc21	active: 12 µM	–
O=C(NCCS(=O)(=O)N1CCN(c2cccc(Cl)c2)CC1)c1ccco1	inconclusive [falling, single point]	–
CC1CCc2c(sc(NC(=O)c3nc4ncccn4n3)c2C#N)C1 (stereo not given)	inconclusive [falling, partial curve]	–
COC(=O)\C(C(C)=O)=C(/C=C/C=C/C=C/N(C)C)N(C)C	inconclusive [falling, partial curve]	–
O=C(NCc1ccccn1)c1ccc2nc(-c3ccco3)c(-c3ccco3)nc2c1	active: 2.13 µM	–
Cc1cc(C(=O)NCC(=O)O)c(C)o1	inconclusive [activator, single point]	–

Compound	Potency	activity, negative = inhibition
S=C1SCN(Cc2ccccn2)CN1Cc1ccco1	inconclusive [falling, single point]	–
CS(=O)(=O)Nc1ccc(C2=NN(C(=O)c3ccco3)C(c3ccccc3F)C2)cc1 (stereo not given)	–	inactive: 3.3%
COc1cc(/C=C2/C(=O)ON=C2C)cc(Cl)c1O	–	inactive: -4.96%
O=C(CCNC(=O)N1CC(=O)Nc2ccccc21)NCc1cccc(Cl)c1	–	inactive: -7.98%
O=C(/C=C/c1ccc(Br)cc1)c1ccco1	–	inactive: -4.39%
CN(CCCN1CCOCC1)C(=O)c1ccc2nc(Cc3cccc(Cl)c3)oc2c1	inconclusive [falling, single point]	–
NC(=O)C1CCN(c2nc(-c3ccc4occc(=O)c4c3)cs2)CC1	inconclusive [falling, single point]	–
Cn1c(/C=C/c2ccccc2)nc2ccccc21	inconclusive [falling, single point]	–
Nc1ccccc1SC(C[N+](=O)[O-])c1ccccc1 (stereo not given)	active: 13.5 µM	–
COc1ccc2o/c(=N/NC(=O)c3cccs3)c(C(N)=O)cc2c1	inconclusive [activator, partial curve]	–
CCN(CC)S(=O)(=O)c1cccc(C(=O)N/N=C/c2ccc(O)c(O)c2O)c1	inconclusive [falling, single point]	–
c1ccc(Cc2nnc3n2CCCCC3)cc1	inconclusive [falling, single point]	–
CC(c1cccs1)N(Cc1ccco1)C(=O)Nc1ccc(Cl)c(Cl)c1 (stereo not given)	inconclusive [falling, partial curve]	–
COc1ccc(-c2cc(C(F)(F)F)nc(SCC(=O)NCc3cnn(C)c3C)n2)cc1OC	–	inactive: -4.89%
COc1ccc(/C=C2/SC(=S)N(c3ccc(S(=O)(=O)Nc4nccs4)cc3)C2=O)cc1	inconclusive [falling, single point]	–
O=C(c1ccc(S(=O)(=O)c2ccccc2Cl)c([N+](=O)[O-])c1)N1CCN(Cc2ccccc2)CC1	–	inactive: -2.94%
Cc1ccc(C2/C=C\CC(NC(=O)OCC3c4ccccc4-c4ccccc43)CC(=O)N2Cc2ccccc2)cc1 (stereo not given)	–	inactive: 0.0122%
Cc1nnc(N/N=C/c2c(O)n(-c3cccc(C(F)(F)F)c3)c(=O)c3ccccc23)[nH]c1=O	inconclusive [activator, single point]	–
CCCn1c(=O)c2sccc2n2c(CCCC(=O)NCc3ccco3)nnc12	inconclusive [falling, single point]	–
CC1(C(=O)NCc2ccc(Cl)c(Cl)c2)Oc2cccnc2NC1=O (stereo not given)	inconclusive [falling, single point]	–
O=C(Nc1ccncc1)Nc1ccc(F)cc1	inconclusive [falling, single point]	–
CC(C)Cc1nnc(NC(=O)c2ccc([N+](=O)[O-])cc2)s1	inconclusive [falling, single point]	–
Cc1ccc(N2NC(=O)/C(=C/c3ccc(-c4ccc(Cl)c(C(=O)O)c4)o3)C2=O)cc1	inconclusive [falling, single point]	–
Cc1cc(NC(=O)Cc2cc(F)cc(F)c2)no1	inconclusive [falling, partial curve]	–

Compound	Potency	activity, negative = inhibition
C=CCn1c(SCCCc2ccccc2)nc2c1c(=O)[nH]c(=O)n2C	inconclusive [falling, single point]	–
COc1ccccc1C(=O)NNC(=O)c1cccc([N+](=O)[O-])c1	–	inactive: -19.5%
NC(=O)c1ccsc1NC(=O)C1CCCN1S(=O)(=O)c1ccc(Cl)cc1 (stereo not given)	inconclusive [activator, single point]	–
O=C(O)/C=C/c1cccc(NC(=O)Nc2ccc([N+](=O)[O-])cc2)c1	inconclusive [falling, single point]	–
COc1ccccc1NS(=O)(=O)c1cc([N+](=O)[O-])ccc1N/N=C/c1c(C)[nH]c2ccccc12	–	inactive: 2.12%
C=C(C)C(=O)Nc1cccc(C2=NOC3(C2)C[C@H](C(N)=O)N(C(=O)COc2ccc(Cl)cc2)C3)c1 (stereo not given in full)	inconclusive [falling, full curve]	–
Cc1cc(C)cc(NC(=S)NCCc2ccc(S(N)(=O)=O)cc2)c1	inconclusive [falling, single point]	–
Cc1ccc(NS(=O)(=O)c2ccc(NC(=O)CSc3ccc(Cl)cc3)cc2)c(C)c1	–	inactive: -3.4%
Oc1ccc(/C=N/Nc2ncnc3nc[nH]c23)cc1	inconclusive [falling, partial curve]	–
O=c1[nH]c2cc3c(cc2cc1CN(Cc1ccco1)C(=S)NCC1CCCO1)OCCO3 (stereo not given)	–	inactive: 0.419%
CCOC(=O)c1ccc(-c2c(-c3ccccc3OC)sc3ccc(OC)cc23)cc1F	–	inactive: 2.84%
COc1ccc(-n2cc(-c3ccc(OC)c(OC)c3)[nH]c2=S)cc1	inconclusive [falling, full curve]	–
O=C(Cc1ccc(F)cc1)Nc1ccc(S(=O)(=O)N2CCCCC2)cc1	inconclusive [falling, single point]	–
NC(=O)c1cc(S(=O)(=O)N2CCN(c3cccc(Cl)c3)CC2)cs1	inconclusive [falling, full curve, poor fit]	–
Cc1cc(C)n(CCc2nc(-c3ccc(C)o3)cs2)n1	inconclusive [falling, single point]	–
O=C(N/N=C/c1ccoc1)c1ccccc1F	inconclusive [falling, single point]	–
Cn1cccc1C(=O)OCC(=O)Nc1ccc2[nH]c(=O)[nH]c2c1	inconclusive [falling, single point]	–
Cc1ccc(S(=O)(=O)N/N=C\c2ccc(C)o2)cc1	inconclusive [falling, single point]	–
Cc1nn(Cc2ccc(F)cc2)c(C)c1NC(=O)c1cc2ncc(Br)cn2n1	active: 23.9 µM	–
CCOc1cc(/C=C2\C(=O)N(CCC#N)N=C2C)ccc1OCC(N)=O	inconclusive [falling, single point]	–
CSc1nc(-c2ccco2)nn1C(=O)c1ccc(C)cc1	–	inactive: -1.6%
O=C(CCCCCNC(=O)c1ccccc1Br)N=Nc1c(O)[nH]c2ccccc12	inconclusive [falling, single point]	–
